Data: PubChem BioAssay AID686971 (National Center for Advancing Translational Sciences (NCATS), 2013)
Screen size: about 360,000 compounds; about 7,500 (2.1%) were called active. Inconclusive means that the source gave no clear call. Such entries were picked first, then a sample of the others. The call rests on the fitted dose curve; in most records, active means well fitted cell-killing curve with a large enough effect; inconclusive means small, poorly fitted or top-dose-only effect, or effect the other way, or another doubt; inactive means no such curve, though single readings can be large or run the other way. Potencies of inconclusive entries are left out as doubtful fits.

Assay: qHTS for induction of synthetic lethality in tumor cells producing 2HG: qHTS for the HT-1080-IDH1KD cell line;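 on activity, negative = toxicity: 0% = DMSO wells and -100% = cell-free medium wells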
Settings: HT-1080 IDH1 knockdown viability, ATP luminescence, 48 h; activity, negative = toxicity: at 46.1 µM (top of the series) unless noted
Summary of the method: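 Knockdown cells (IDH1KD HT-1080) received compounds 2 h after plating at 750 cells/well and were kept 48 h at 37 °C in 5% FBS RPMI. A CellTiter-Glo luminescence read gave % activity for curve fitting.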
Potency means the concentration at half of the fitted maximal effect; tags describe the fitted curve by direction and shape.

Structure (SMILES)	Potency	activity, negative = toxicity
COC(=O)c1cnc(Nc2nc(C(N)Cc3ccccc3)cs2)nc1C(F)(F)F (stereo unspecified)	inconclusive [cytotoxic, single point]	
CN1CCN(c2ccc(NC(=O)c3ccc(-c4ccc(Cl)cc4)o3)cc2)CC1	active: 8.2 µM	
CCOC(=O)c1sc(NC(=O)c2c(C)nn(Cc3ccccc3)c2C)cc1C	inconclusive [cytotoxic, single point]	
O=C(NC(Cc1c[nH]c2ccccc12)C(=O)N/N=C/c1ccc(Br)cc1)c1cccs1 (stereo unspecified)	active: 32.6 µM	
COc1ccc(NS(=O)(=O)c2ccc(-c3coc(C)n3)cc2)c(OC)c1	inconclusive [cytotoxic, single point]	
COc1ccc(C(=O)Nc2ccc3[nH]c(-c4cccc(OC)c4)cc(=O)c3c2)cc1	inconclusive [cytotoxic, full curve]	
COc1cccc(OC)c1-c1nn2c(-c3cc(-c4ccccc4)n[nH]3)nnc2s1	inconclusive [cytotoxic, single point]	
COc1cc2c(cc1OC)CN(C(=O)CSc1nnc3scc(-c4ccccc4)n13)CC2	inactive	
O=C(CC1SC(N2CCCC2)=NC1=O)Nc1ccc(C(=O)Nc2ncccc2O)cc1 (stereo unspecified)	inconclusive [cytotoxic, partial curve]	
COc1ccc(-c2sc3ccccc3c2-c2cc(OC)ccc2C=O)cc1	inconclusive [cytotoxic, single point]	
CC(=O)N(CCC(Cc1ccccc1)c1ccc2c(c1)OCO2)Cc1ccc(Cl)cc1 (stereo unspecified)	inconclusive [cytotoxic, single point]	
Cc1cccc(CN2CCN(C3CN(C4CCCCC4)S(=O)(=O)C3)CC2)c1 (stereo unspecified)	inconclusive [cytotoxic, single point]	
CCCCOCCCNC(=O)C[C@@H]1C[C@@]2(C(=O)OC)CCCCC=C2N(Cc2ccc(Cl)cc2Cl)C1=O	inconclusive [cytotoxic, single point]	
COc1ccc(/C=N/NC(=O)c2ccoc2C)cc1COc1ccc(Cl)cc1	inconclusive [cytotoxic, single point]	
Cn1nc(C(=O)N2CCN(C(c3ccccc3)c3ccccc3)CC2)c2ccccc2c1=O	inconclusive [cytotoxic, single point]	
CCN(CC)CCCNC(=O)c1ccc(OCC(=O)Nc2ccccc2C(F)(F)F)c(OC)c1	inconclusive [cytotoxic, single point]	
Cc1ccc(CC(=O)Nc2nc3c(s2)CCCC3)cc1	inconclusive [cytotoxic, full curve]	
Cc1oc(-c2ccccc2F)nc1CN1CCC(C(=O)NCCC2=CCCCC2)CC1	inactive	
COc1ccccc1/C=C/C1(C(=O)NC2CCCC2)CC(=O)N1c1ccc(C)cc1 (stereo unspecified)	inconclusive [cytotoxic, single point]	
O=C(COc1ccc(/C=N/NC(=O)c2cc3ccccc3o2)cc1Cl)Nc1ccccc1	inconclusive [cytotoxic, partial curve, poor fit]	
COc1ccc(C(C#N)=Cc2ccccc2OC)cc1	inconclusive [cytotoxic, single point]	

Structure (SMILES)	Potency	activity, negative = toxicity
C=CCn1c(Cc2csc(N)n2)nnc1SCc1ccc(C(=O)OC)cc1	inactive	
Cc1nnc(NC(=O)c2nc(S(=O)(=O)Cc3ccccc3C)ncc2Cl)s1	inconclusive [cytotoxic, single point]	
CCn1c(CCNC(=O)c2cccs2)nnc1SCC(=O)Nc1nc(-c2ccccc2)cs1	inactive	
CC1CCCCC1NC(=O)C1CCN(S(=O)(=O)N2CCC3(CC2)OCCO3)CC1 (stereo unspecified)		inconclusive: 31.3%
C/C(=N/NC(=O)c1cc(-c2ccc(Br)s2)[nH]n1)c1ccco1	inconclusive [cytotoxic, single point]	
Cc1ccccc1NC(=S)NC(NC(=O)COc1ccccc1)C(Cl)(Cl)Cl (stereo unspecified)	inactive	
C#CCN(C[C@@H]1[C@@H](OC(=O)NCc2ccc(OC)c(OC)c2)[C@@H](OC(=O)NCc2ccc(OC)c(OC)c2)Cn2c(=O)ccc(=O)n21)S(=O)(=O)c1ccc(C)cc1	active: 20.6 µM	
CCOC(=O)N1CCC(NS(=O)(=O)c2cc(C(=O)OC)n(C)c2)CC1	inactive	
Cc1ccc(CNS(=O)(=O)c2ccccc2[N+](=O)[O-])cc1	inactive	
COc1ccc(-c2nc3c(Cl)cc(C(F)(F)F)cn3c2Cc2ccc(C)cc2)cc1OC	inconclusive [cytotoxic, single point]	
CCC/C=C/c1ccc(CN2C(C(C)C)C(=O)N(Cc3cn(CCC4OCCO4)nn3)CCS2(=O)=O)cc1 (stereo unspecified)	inconclusive [cytotoxic, single point]	
CCCOc1ccc(C(=O)NC(=S)NNC(=O)c2c(-c3ccccc3)noc2C)cc1	inconclusive [cytotoxic, single point]	
CCCCCc1cc(=O)oc2c(C(CCN3CCCC(C)C3)c3ccc(OC)cc3)c(OC)cc(OC)c12 (stereo unspecified)	inactive	
CC(NS(=O)(=O)c1ccc(OCC(=O)Nc2cccc([N+](=O)[O-])c2)cc1)c1ccccc1 (stereo unspecified)	inconclusive [cytotoxic, single point]	
Cc1ccc(-c2cc(C(=O)N3CC(C)CC(C)C3)c3ccccc3n2)o1 (stereo unspecified)	inconclusive [cytotoxic, single point]	
O=C1NC(c2ccc(-c3ccccc3[N+](=O)[O-])o2)C(C(=O)c2ccc(F)cc2)C(O)(C(F)(F)F)N1 (stereo unspecified)	inconclusive [cytotoxic, single point]	
O=C(CCl)Nc1ccc(S(=O)(=O)Nc2nccs2)cc1	active: 13 µM	
C/C(=C\C(=O)c1ccc(Br)cc1)NCc1ccc2c(c1)OCO2	inconclusive [cytotoxic, single point]	
Cc1ccc(NC(=S)N2CCC(N(C)CC3CCCO3)CC2)c(C)c1 (stereo unspecified)	inactive	
CCOC(=O)c1c(-c2ccccc2)[nH]c2ccc(O)cc12	inactive	
